According to PubChem BioAssay (NCATS):
“And” between values parts separate entries of the source, which are not always exact repeats. Equal values may be shown once. The shares of active, inactive and inconclusive entries below differ from those in the screen. For part of these data: A potency beside an inconclusive call is a rough fit, not a confirmed value. The source made the active and inactive calls. Unless noted, the call rests on the fitted dose curve; in most records, active means well fitted curve in the direction sought with a large enough effect; inconclusive means small, poorly fitted or top-dose-only effect, or another doubt; inactive means no such curve, though single readings can be large; an effect the other way counts as inactive or inconclusive. *1 amine or outer side, *2 acyl side, *3 side chain or, on linkers, in order; H or OH if unused. Where a SMILES comes first, the peptide text is derived from it. Bridges are numbered along the chain shown (N, C = ends). [ ]: non-standard residue; d: D form. The star is where a group is joined. ξ: configuration not given here. pTerphenylCO(4''-OnC5H11) = CCCCCOc1ccc(-c2ccc(-c3ccc(C(=O)*)cc3)cc2)cc1; ξOrn(4,5-diOH) = O=C(C(CC(O)C(O)N[*:3])N[*:1])[*:2]; ξhTyr(βξ-OH,γξ-OH) = NC(C(=O)O)C(O)C(O)c1ccc(O)cc1; ξPro(3ξ-OH,4ξ-Me) = CC1CNC(C(=O)O)C1O; Hyp = O=C(O)[CH]1C[CH](O)CN1

Legend:
[1] = biological target: Glutathione peroxidase 1 (Homo sapiens) (UniProt P07203); assay: Primary qHTS Assay for Inhibitors of Recombinant Selenoprotein Glutathione Peroxidase 1 (GPX1) (AID 1845191); further: potency means the concentration at half of the fitted maximal effect; nearly all actives have a fitted effect of over 65% in size
Outline: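 10 nM GPX1 + cpd, 30 min RT; start w/ 1 mM GSH, 0.5 mM cumene hydroperoxide, 0.5 mM NADPH, 100 nM GR, 0.01% BSA; buffer 50 mM Tris-HCl pH 7.5, 2 mM EDTA, 150 mM NaCl; Fl 340/450, 0 & 15 min.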

[2] = biological target: Phospholipid hydroperoxide glutathione peroxidase GPX4 (Homo sapiens) (UniProt P36969); assay: Primary qHTS Assay for Inhibitors of Recombinant Selenoprotein Glutathione Peroxidase 4 (GPX4) (AID 1845192); further: nearly all actives have a fitted effect of over 65% in size; further: potency means the concentration at half of the fitted maximal effect; on activity change, negative = inhibition: on the % scale 0 is the no-effect control and ±100 the full control effect
Outline: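 NADPH consumption, followed by fluorescence at 340/450 nm between 0 and 15 min, reports GPX4 activity via coupled glutathione reductase (100 nM). Enzyme 200 nM was pre-exposed to compound 30 min; 0.5 mM cumene hydroperoxide and 1 mM GSH served as substrates.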

[3] = Cytometric Cell-Based qHTS for Inhibitors of the mTORC1 Signaling Pathway in MEF (Tsc2-/-, p53-/-) Cells (AID 2660); conditions: mTORC1 pathway cytometry; at 38.3 µM (top of the series);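 further: Tsc2 and p53 null MEFs carrying empty vector with compound for 24 h; percent of cells above a phospho-rpS6 to PI ratio cutoff in each well; plate controls were DMSO for no effect and rapamycin for full effect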
Outline: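 Percent of cells positive for normalized phospho-S6 staining is reported, with the cutoff set from rapamycin (7.5 nM) versus DMSO wells. Tsc2-/-, p53-/- MEFs received compound for 24 hrs.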

[4] = biological target: ATP-dependent 6-phosphofructokinase (Trypanosoma brucei brucei) (UniProt O15648); assay: qHTS Validation Assay to Find Inhibitors of T. brucei phosphofructokinase (AID 485368); further: potency means the concentration at half of the fitted maximal effect
Outline: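 Activity was normalized between 1x (1.25 nM) PFK wells as no inhibition and enzyme-free wells as full inhibition, from luminescence after ADP-Glo detection of ADP made from 0.5 mM F6P and 0.1 mM ATP over 45 min.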

[5] = biological target: Thioredoxin reductase 1, cytoplasmic (Rattus norvegicus) (UniProt O89049); assay: qHTS Assay for Substrates of Mammalian Selenoprotein Thioredoxin Reductase 1 (TrxR1) (AID 488772); conditions: purified TrxR1, NADPH consumption substrate assay;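 further: NADPH fluorescence in the first read after selenite addition and not the 8 min delta; potency means the concentration at half of the fitted maximal effect; a drop in NADPH fluorescence below the no-compound background marks a TrxR1 substrate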
Outline: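 Quantitative HTS in Tris-HCl buffer at pH 7.5 with EDTA and Tween-20, using rat TrxR1, 400 uM NADPH and 400 uM selenite (final). A fall in initial NADPH fluorescence relative to background marked substrate behaviour.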

[6] = biological target: Thioredoxin reductase 1, cytoplasmic (Rattus norvegicus) (UniProt O89049); assay: qHTS Assay for Inhibitors of Mammalian Selenoprotein Thioredoxin Reductase 1 (TrxR1) (AID 488773); conditions: Potency: inhibition; further: potency means the concentration at half of the fitted maximal effect; nearly all actives have a fitted effect of over 40% in size
Outline: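 Steps: enzyme (90 nM) plus NADPH (400 uM final), 5 min at ~22 deg C; compound added, 15 min; selenite (400 uM final) added; fluorescence followed for 8 min. Concentration-response curves derived from the normalized delta values.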

[7] = biological target: Chromobox protein homolog 1 (Homo sapiens) (UniProt P83916); assay: qHTS Validation Assay for Inhibitors of HP1-beta Chromodomain Interactions with Methylated Histone Tails (AID 488953); further: potency means the concentration at half of the fitted maximal effect; nearly all actives have a fitted effect of over 50% in size
Outline: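 50 nM HP1-beta + 50 nM biotin-H3(1-18)K9me3, PBS pH 7.4, 0.01% Tween-20, 30 min RT; compound added, 30 min RT; AlphaScreen beads 10 ug/mL final, 30 min dark; luminescence read.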

[8] = biological target: D(1A) dopamine receptor (Homo sapiens) (UniProt P21728); assay: HTS Assay for Allosteric Agonists of the Human D1 Dopamine Receptor: Primary Screen for Antagonists (AID 488983); conditions: D1 receptor cell assay, antagonist mode, qHTS titration; at 41.8 µM (top of the series);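 further: calcium flux response to an EC80 dopamine challenge measured with no-wash dye; on the % scale 0 is the no-effect control and ±100 the full control effect; nearly all actives have a fitted effect of over 65% in size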
Outline: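 Cells are induced with tetracycline and incubated overnight at 30 C, then loaded with calcium dye for 30 to 90 minutes at room temperature. Compound addition is followed by a 180 s read, then an EC80 dopamine addition and another 180 s read.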

[9] = biological target: Peptidyl-prolyl cis-trans isomerase NIMA-interacting 1 (Homo sapiens) (UniProt Q13526); assay: qHTS Validation Assay to Find Inhibitors of Pin1 (AID 504536; active means well fitted inhibition curve with a large enough effect in the polarisation, with a control signal flat, not every such curve was filed as active; inconclusive means small, poorly fitted or top-dose-only effect, or effect the other way; the % refers to the polarisation; further: potency means the concentration at half of the fitted maximal effect)
Outline: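 Fluorescence polarization competition: compounds (titration) displace HiFluor-488-labeled Pin1-1b peptide from Pin1 (0.3 uM final) in pH 7.5 HEPES buffer with DTT, 10 min at room temperature; %Activity normalized to no-enzyme wells, curves fitted.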

[10] = biological target: Phosphoglycerate kinase, glycosomal (Trypanosoma brucei brucei) (UniProt P07378); assay: qHTS Validation Assay to Find Inhibitors of Phosphoglycerate Kinase (AID 504547); conditions: enzymatic PGK inhibition, coupled luminescence read-out; further: potency means the concentration at half of the fitted maximal effect
Outline: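 Inhibition of the enzyme is judged by a Kinase-Glo Plus luminescent signal following a one-hour incubation at room temperature. Because 1,3-BPG is unstable, it is made in situ by GAPDH at 100nM final; no-PGK wells define the baseline.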

[11] = Primary fluorescence-based thiol-reactive (MSTI) qHTS assay for identification of artifact compounds. (AID 1845221);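 further: potency means the concentration at half of the fitted maximal effect; thiol-reactive compounds lower the probe fluorescence signal; nearly all actives have a fitted effect of over 65% in size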
Outline: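 Thiol-reactive compounds detected by quenching of 4 uM MSTI fluorescence (525/598 nm) after 1 h room-temperature dark incubation in PBS pH 7.4, 2% DMSO. qHTS titration; percent inhibition Hill-fitted against Acetyl-MSTI/MSTI controls.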
Tags describe the fitted curve by direction and shape or compound fluorescence and quenching.

Sequence of UniProt P36969 (P36969 whole entry, looked up): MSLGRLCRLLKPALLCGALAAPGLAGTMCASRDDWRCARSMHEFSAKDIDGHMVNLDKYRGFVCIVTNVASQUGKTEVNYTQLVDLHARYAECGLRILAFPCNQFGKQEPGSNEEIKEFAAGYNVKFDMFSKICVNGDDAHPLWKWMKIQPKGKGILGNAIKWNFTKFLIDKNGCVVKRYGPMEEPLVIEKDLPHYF
Sequence of UniProt P07203 (P07203 whole entry, looked up): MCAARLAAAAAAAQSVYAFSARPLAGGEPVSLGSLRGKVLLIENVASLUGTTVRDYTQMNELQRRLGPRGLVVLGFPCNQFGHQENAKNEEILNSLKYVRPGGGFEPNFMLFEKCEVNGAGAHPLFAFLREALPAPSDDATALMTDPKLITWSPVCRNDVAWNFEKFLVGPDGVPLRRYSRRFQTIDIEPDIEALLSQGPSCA
Sequence of UniProt O89049 (O89049 whole entry, looked up): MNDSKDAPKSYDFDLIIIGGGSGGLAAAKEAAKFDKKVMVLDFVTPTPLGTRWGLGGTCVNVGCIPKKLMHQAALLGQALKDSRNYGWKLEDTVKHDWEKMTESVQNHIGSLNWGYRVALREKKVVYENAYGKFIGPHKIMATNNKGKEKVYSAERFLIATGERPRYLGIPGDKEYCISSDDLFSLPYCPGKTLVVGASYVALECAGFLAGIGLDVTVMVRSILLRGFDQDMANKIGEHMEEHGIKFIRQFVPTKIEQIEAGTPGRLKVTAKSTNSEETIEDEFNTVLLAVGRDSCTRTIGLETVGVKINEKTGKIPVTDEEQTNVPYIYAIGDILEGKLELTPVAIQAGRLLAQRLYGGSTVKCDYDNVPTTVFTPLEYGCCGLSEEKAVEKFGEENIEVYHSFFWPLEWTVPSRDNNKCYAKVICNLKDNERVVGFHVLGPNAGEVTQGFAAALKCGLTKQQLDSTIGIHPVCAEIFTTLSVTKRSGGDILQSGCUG
Sequence of UniProt P21728 (P21728 whole entry, looked up): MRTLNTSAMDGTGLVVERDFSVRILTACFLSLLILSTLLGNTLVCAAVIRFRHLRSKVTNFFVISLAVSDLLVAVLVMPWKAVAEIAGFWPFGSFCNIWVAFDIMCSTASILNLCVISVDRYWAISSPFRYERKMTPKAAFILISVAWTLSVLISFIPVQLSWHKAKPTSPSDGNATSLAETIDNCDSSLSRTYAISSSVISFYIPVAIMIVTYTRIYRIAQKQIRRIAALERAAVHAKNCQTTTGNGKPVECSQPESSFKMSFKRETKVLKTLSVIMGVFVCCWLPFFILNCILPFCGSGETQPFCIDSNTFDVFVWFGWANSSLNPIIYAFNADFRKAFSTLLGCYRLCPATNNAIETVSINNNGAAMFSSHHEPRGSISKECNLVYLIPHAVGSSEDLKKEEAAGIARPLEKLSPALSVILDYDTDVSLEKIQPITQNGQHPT
Sequence of UniProt O15648 (O15648 whole entry, looked up): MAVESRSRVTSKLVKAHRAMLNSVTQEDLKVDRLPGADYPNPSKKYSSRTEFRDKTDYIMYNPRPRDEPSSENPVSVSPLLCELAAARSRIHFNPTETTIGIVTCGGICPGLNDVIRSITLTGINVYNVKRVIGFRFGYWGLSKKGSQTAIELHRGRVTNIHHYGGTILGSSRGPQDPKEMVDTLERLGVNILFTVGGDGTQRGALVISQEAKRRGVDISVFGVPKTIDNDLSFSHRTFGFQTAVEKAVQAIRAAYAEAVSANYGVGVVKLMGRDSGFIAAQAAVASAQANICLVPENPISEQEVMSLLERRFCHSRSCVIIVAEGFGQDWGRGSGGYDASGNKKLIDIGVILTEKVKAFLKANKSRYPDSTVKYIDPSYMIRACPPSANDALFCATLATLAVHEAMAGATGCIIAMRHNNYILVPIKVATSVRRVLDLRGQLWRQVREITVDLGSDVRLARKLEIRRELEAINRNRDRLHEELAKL
Sequence of UniProt Q13526 (Q13526 whole entry, looked up): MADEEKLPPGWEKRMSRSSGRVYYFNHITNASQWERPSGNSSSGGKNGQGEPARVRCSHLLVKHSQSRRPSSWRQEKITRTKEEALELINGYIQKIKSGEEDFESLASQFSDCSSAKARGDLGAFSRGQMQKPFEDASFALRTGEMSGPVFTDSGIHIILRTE
Sequence of UniProt P83916 (P83916 whole entry, looked up): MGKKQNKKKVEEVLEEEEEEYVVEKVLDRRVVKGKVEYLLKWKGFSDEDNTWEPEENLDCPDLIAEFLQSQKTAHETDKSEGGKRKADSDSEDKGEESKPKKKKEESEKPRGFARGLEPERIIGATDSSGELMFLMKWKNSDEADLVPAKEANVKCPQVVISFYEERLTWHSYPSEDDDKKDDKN

CCc1cc2c(cc1CC)CC(NC[C@H](O)c1ccc(O)c3[nH]c(=O)ccc13)C2
Potency [1]: inconclusive: 5.08 µM [inhibitor, full curve]
Potency [2]: active: 10 µM

CCCCCOc1ccc(-c2ccc(-c3ccc(C(=O)NC4CC(O)C(O)NC(=O)C5C(O)C(C)CN5C(=O)C(C(C)O)NC(=O)C(C(O)C(O)c5ccc(O)cc5)NC(=O)C5CC(O)CN5C(=O)C(C(C)O)NC4=O)cc3)cc2)cc1 (stereo not drawn) ({pTerphenylCO(4''-OnC5H11)}-[ξOrn(4,5-diOH)]T[Hyp][ξhTyr(βξ-OH,γξ-OH)]T[ξPro(3ξ-OH,4ξ-Me)]; lactam 1-C; configuration not given here)
Potency [1]: inconclusive: 14 µM [inhibitor, single point]
Potency [2]: inconclusive: 15.8 µM [inhibitor, single point]

NCCC[C@H](NC(=O)[C@@H]1CCCN1C(=O)[C@@H]1CSSC[C@H](N)C(=O)N[C@@H](Cc2ccc(O)cc2)C(=O)N[C@@H](Cc2ccccc2)C(=O)N[C@@H](CCC(N)=O)C(=O)N[C@@H](CC(N)=O)C(=O)N1)C(=O)NCC(N)=O
Potency [1]: inconclusive: 22.7 µM [inhibitor, partial curve]
Potency [2]: active: 25.1 µM

CO/N=C(\C(=O)N[C@@H]1C(=O)N2C(C(=O)O)=C(COC(C)=O)CS[C@H]12)c1csc(N)n1
activity change, negative = inhibition [3]: inactive: 2.4%
Potency [4]: active: 8.49 µM
Potency [5]: inconclusive: 13.4 µM [inhibitor, partial curve]
Potency [6]: inconclusive: 23.8 µM [inhibitor, partial curve, poor fit]
Potency [7]: active: 50.1 µM
activity change, negative = inhibition [8]: inactive: 3.79%
Potency [9]: inconclusive: 21.3 µM [falling, partial curve, poor fit]
Potency [10]: inconclusive: 26.9 µM [inhibitor, partial curve, poor fit]
Potency [1]: active: 8.06 µM and inconclusive: 28.2 µM [inhibitor, single point]

Cc1c(Cl)c(C)[n+]([O-])c(Cl)c1-c1noc(-c2cc(O)c(O)c([N+](=O)[O-])c2)n1
Potency [1]: inconclusive: 28.6 µM [inhibitor, partial curve, poor fit]
Potency [2]: inconclusive: 17.8 µM [inhibitor, partial curve, poor fit]

COC(=O)N[C@H](C(=O)N1CCC[C@H]1c1ncc(-c2ccc3c(c2)O[C@@H](c2ccccc2)n2c-3cc3cc(-c4cnc([C@@H]5CCCN5C(=O)[C@@H](NC(=O)OC)C(C)C)[nH]4)ccc32)[nH]1)C(C)C
Potency [1]: inconclusive: 22.7 µM [inhibitor, partial curve]
Potency [2]: active: 6.31 µM

OC[C@@]1(O)CO[C@H](OC[C@H]2O[C@@H](OCCc3ccccc3)[C@H](O)[C@@H](O)[C@@H]2O)[C@@H]1O
Potency [2]: inactive
Potency [11]: inconclusive: 11.6 µM [inhibitor, partial curve]
